System: H4 #9.25 cells

Asp-Ala diketopiperazine [DA-DKP]
in vitro cytokine production: inhibited
